Test results reported in the GPR68 mutational scans of Howard et al. (2025).
Scores whose standard error is large were omitted. The source holds two more conditions with little spread; they are left out. In variant names, del marks residues removed and ins residues inserted between the two positions. For part of these data: The concentration of ogerin is not given here.

B1: GPR68, Q15743 (parent)
chain: MGNITADNSSMSCTIDHTIHQTLAPVVYVTVLVVGFPANCLSLYFGYLQIKARNELGVYLCNLTVADLFYICSLPFWLQYVLQHDNWSHGDLSCQVCGILLYENIYISVGFLCCISVDRYLAVAHPFRFHQFRTLKAAVGVSVVIWAKELLTSIYFLMHEEVIEDENQHRVCFEHYPIQAWQRAINYYRFLVGFLFPICLLLASYQGILRAVRRSHGTQKSRKDQIQRLVLSTVVIFLACFLPYHVLLLVRSVWEASCDFAKGVFNAYHFSLLLTSFNCVADPVLYCFVSETTHRDLARLRGACLAFLTCSRTGRAREAYPLGAPEASGKSGAQGEEPELLTKLHPAFQTPNSPGSGGFPTGRLA

Legend:
[1] = variants of: B1; experiment: cAMP reporter score (Enrich2 score, wild type = 0); higher = more signal; HEK293T, FACS bins
[2] = variants of: B1; experiment: surface expression score (Enrich2 score, wild type = 0); higher = more signal; HEK293T, FACS bins

MGNITADNSSMSCTIDHTIHQTLAPVVYVTVLVVGFPANCLSLYFGYLQIKARNELGVYLCNLTVADIFYICSLPFWLQYVLQHDNWSHGDLSCQVCGILLYENIYISVGFLCCISVDRYLAVAHPFRFHQFRTLKAAVGVSVVIWAKELLTSIYFLMHEEVIEDENQHRVCFEHYPIQAWQRAINYYRFLVGFLFPICLLLASYQGILRAVRRSHGTQKSRKDQIQRLVLSTVVIFLACFLPYHVLLLVRSVWEASCDFAKGVFNAYHFSLLLTSFNCVADPVLYCFVSETTHRDLARLRGACLAFLTCSRTGRAREAYPLGAPEASGKSGAQGEEPELLTKLHPAFQTPNSPGSGGFPTGRLA [L68I]
cAMP reporter score ([1]; pH 5.5): 0.192 | cAMP reporter score ([1]; pH 6): 1.97 | cAMP reporter score ([1]; pH 6, modulator: ogerin): 0.499 | cAMP reporter score ([1]; pH 6.5, modulator: ogerin): 0.199 | surface expression score [2]: 0.147

MGNITADNSSMSCTIDHTIHQTLAPVVYVTVLVVGFPANCLSLYFGYLQIKARNELGVYLCNLTVADKFYICSLPFWLQYVLQHDNWSHGDLSCQVCGILLYENIYISVGFLCCISVDRYLAVAHPFRFHQFRTLKAAVGVSVVIWAKELLTSIYFLMHEEVIEDENQHRVCFEHYPIQAWQRAINYYRFLVGFLFPICLLLASYQGILRAVRRSHGTQKSRKDQIQRLVLSTVVIFLACFLPYHVLLLVRSVWEASCDFAKGVFNAYHFSLLLTSFNCVADPVLYCFVSETTHRDLARLRGACLAFLTCSRTGRAREAYPLGAPEASGKSGAQGEEPELLTKLHPAFQTPNSPGSGGFPTGRLA [L68K]
cAMP reporter score ([1]; pH 5.5): -1.79 | cAMP reporter score ([1]; pH 6): -1.03 | cAMP reporter score ([1]; pH 6.5, modulator: ogerin): -0.901 | surface expression score [2]: -3.11

MGNITADNSSMSCTIDHTIHQTLAPVVYVTVLVVGFPANCLSLYFGYLQIKARNELGVYLCNLTVADMFYICSLPFWLQYVLQHDNWSHGDLSCQVCGILLYENIYISVGFLCCISVDRYLAVAHPFRFHQFRTLKAAVGVSVVIWAKELLTSIYFLMHEEVIEDENQHRVCFEHYPIQAWQRAINYYRFLVGFLFPICLLLASYQGILRAVRRSHGTQKSRKDQIQRLVLSTVVIFLACFLPYHVLLLVRSVWEASCDFAKGVFNAYHFSLLLTSFNCVADPVLYCFVSETTHRDLARLRGACLAFLTCSRTGRAREAYPLGAPEASGKSGAQGEEPELLTKLHPAFQTPNSPGSGGFPTGRLA [L68M]
cAMP reporter score ([1]; pH 5.5): -0.856 | cAMP reporter score ([1]; pH 6): -0.462 | cAMP reporter score ([1]; pH 6, modulator: ogerin): -0.732 | cAMP reporter score ([1]; pH 6.5, modulator: ogerin): -1.12 | surface expression score [2]: -1.1

MGNITADNSSMSCTIDHTIHQTLAPVVYVTVLVVGFPANCLSLYFGYLQIKARNELGVYLCNLTVADNFYICSLPFWLQYVLQHDNWSHGDLSCQVCGILLYENIYISVGFLCCISVDRYLAVAHPFRFHQFRTLKAAVGVSVVIWAKELLTSIYFLMHEEVIEDENQHRVCFEHYPIQAWQRAINYYRFLVGFLFPICLLLASYQGILRAVRRSHGTQKSRKDQIQRLVLSTVVIFLACFLPYHVLLLVRSVWEASCDFAKGVFNAYHFSLLLTSFNCVADPVLYCFVSETTHRDLARLRGACLAFLTCSRTGRAREAYPLGAPEASGKSGAQGEEPELLTKLHPAFQTPNSPGSGGFPTGRLA [L68N]
cAMP reporter score ([1]; pH 5.5): -1.82 | cAMP reporter score ([1]; pH 6, modulator: ogerin): -0.718 | cAMP reporter score ([1]; pH 6.5, modulator: ogerin): -0.595 | surface expression score [2]: -1.75
